According to PubChem BioAssay (Tox21):
Where “and” joins values, the source holds several entries; their conditions need not be identical. Equal entries are not always repeated. This list was built around the results that the source calls inconclusive (neither active nor inactive); the mix of calls is not that of the screen. Potencies of inconclusive entries are doubtful fits and often do not repeat. Some compounds were tested as several samples or in several runs, with calls that do not always agree. Calls of active or inactive are those of the source. The call rests on the fitted dose curve; in most records, active means well fitted cell-killing curve with a large enough effect in the repeat runs; inconclusive means weak or mixed curves, or effect the other way; inactive means no such curve, though single readings can be large or run the other way.

Assay: qHTS assay to identify small molecule antagonists of the retinoid-related orphan receptor gamma (ROR-gamma) signaling pathway - cell viability counter screen (AID 1159520); further: nearly all actives have a fitted effect of over 50% in size
Settings: Tet-on RORgamma CHO cells viability, ATP luminescence, 16 h; series mostly up to 92.4 µM
Procedure, shortened: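 Cytotoxicity was read from cellular ATP (CellTiter-Glo luminescence) after 16 hr at 37 C with 1 uM doxycycline induction. The inducer was added 2 hr after compound transfer to Tet-on ROR gamma CHO cells.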
Potency means the concentration at half of the fitted maximal effect; tags describe the fitted curve by direction and shape.

SMILES	Potency
Cc1cc(C)nc(Nc2ccccc2)n1	inactive
O=Cc1cccc(Oc2ccccc2)c1	inactive
CCC1(c2ccc(N)cc2)CCC(=O)NC1=O (centres undefined)	inactive
Oc1ccc([C@H]2CNCc3c2ccc(O)c3O)cc1O	inconclusive: 29.8 µM [cytotoxic]
O=[N+]([O-])c1cccc2cccc([N+](=O)[O-])c12	inactive
CC(C)(C)c1ccc(CSc2cnn(C(C)(C)C)c(=O)c2Cl)cc1	inconclusive: 0.0273 µM [cytotoxic, partial curve, poor fit]
CCCN(CCCl)c1c([N+](=O)[O-])cc(C(F)(F)F)cc1[N+](=O)[O-]	inconclusive: 15.4 µM [cytotoxic, partial curve, poor fit]
CC1(C)CCC(Cc2ccc(Cl)cc2)C1(O)Cn1cncn1 (centres undefined)	inconclusive: 30.6 µM [cytotoxic, partial curve]
C[C@H]1CCC[C@H](O)CCCCCc2cc(O)cc(O)c2C(=O)O1	inactive
C=CCOC(=O)c1ccccc1N	inactive
Nc1ccc(Cc2ccc(N)c(Cl)c2)cc1Cl	inactive
O=[N+]([O-])O.O=[N+]([O-])O.[Cd]	inconclusive: 1.93 µM [cytotoxic, full curve]
COc1ccc2c3c1O[C@H]1[C@@H](O)C=C[C@H]4[C@@H](C2)N(C)CC[C@@]341	inconclusive: 67.5 µM [cytotoxic, single point]
CCC[N+](=O)[O-]	inconclusive: 47.7 µM [cytotoxic, partial curve, poor fit]
CC(c1ccccc1)(c1ccc(O)cc1)c1ccc(O)cc1	inconclusive: 61.1 µM [cytotoxic, single point]
CCOP(=S)(NC(C)C)Oc1ccccc1C(=O)OC(C)C (centres undefined)	inconclusive: 30.6 µM [cytotoxic, partial curve]
CSC(=O)c1c(C(F)F)nc(C(F)(F)F)c(C(=O)SC)c1CC(C)C	inconclusive: 68.2 µM [cytotoxic]
Cc1ccc(N=CN(C)C=Nc2ccc(C)cc2C)c(C)c1	inconclusive: 68.9 µM [cytotoxic] and inconclusive: 54.4 µM [cytotoxic, partial curve, poor fit]
O=c1oc2ccccc2c(O)c1Cc1c(O)c2ccccc2oc1=O	inconclusive: 13.3 µM [cytotoxic, partial curve, poor fit]
O=[N+]([O-])c1ccc2ccc3cccc4ccc1c2c34	inconclusive: 34.3 µM [cytotoxic, partial curve]

SMILES	Potency
CCCCC(CC)COP(=O)(Oc1ccccc1)Oc1ccccc1 (centres undefined)	inactive
CO[C@@H]1[C@H](OC(=O)NC(=O)CCl)CC[C@]2(CO2)[C@H]1[C@@]1(C)O[C@@H]1CC=C(C)C	inconclusive: 18.8 µM [cytotoxic, partial curve, poor fit]
CC(C)Nc1ccc(Nc2ccccc2)cc1	inconclusive: 60.9 µM [cytotoxic] and inconclusive: 68.6 µM [cytotoxic, partial curve]
CC[n+]1ccccc1	inconclusive: 1.52 µM [cytotoxic, full curve]
CCCCCc1cc(O)cc(O)c1	inconclusive: 61.1 µM [cytotoxic, partial curve]
COP(=S)(OC)Oc1cc(Cl)c(Br)cc1Cl	inconclusive: 54.5 µM [cytotoxic, partial curve, poor fit]
Cc1cc(C)c(C(=O)P(=O)(c2ccccc2)c2ccccc2)c(C)c1	inconclusive: 61.1 µM [cytotoxic, partial curve]
O=C(O)C(Cl)(Cl)Cl	inactive
[Cl][Sn]([c]1ccccc1)([c]1ccccc1)[c]1ccccc1	active: 0.411 µM
C[C@]12C/C(=C/O)C(=O)C[C@@H]1CC[C@@H]1[C@@H]2CC[C@@]2(C)[C@H]1CC[C@]2(C)O	inconclusive: 33.5 µM [cytotoxic, single point]
c1ccc(CN2CCNCC2)cc1	inactive
CCCCNC(=O)OCC#CI	active: 54.2 µM and active: 17.2 µM
O=S(=O)(c1ccc(Cl)cc1)c1cc(Cl)c(Cl)cc1Cl	inconclusive: 61.1 µM [cytotoxic]
CCCCC(O)(Cn1cncn1)c1ccc(Cl)cc1Cl (centres undefined)	inconclusive: 54.4 µM [cytotoxic, partial curve]
OC(c1ccc(Cl)cc1)(c1cncnc1)c1ccccc1Cl (centres undefined)	active: 15.6 µM
C[C@]12CC[C@@H](O)C[C@@H]1CC[C@@H]1[C@@H]2CC[C@]2(C)C(=O)CC[C@@H]12	inconclusive: 38.6 µM [cytotoxic, partial curve, poor fit]
c1ccc(N=NNc2ccccc2)cc1	inconclusive: 31.7 µM [cytotoxic, partial curve, poor fit]
NC(=O)C(Cl)Cl	inactive
O=C(CCl)C(Cl)Cl	active: 27.6 µM
